Source: PubChem BioAssay AID360 (National Center for Advancing Translational Sciences (NCATS), 2006)
The whole screen tested about 48,000 compounds, of which about 550 (1.1%) were called active. Inconclusive results (about 4%) are left out. Cut-off read from the data, not from the text of the source: active = potency below about 15 µM; inconclusive = mostly about 16 µM to 33 µM; inactive = weaker than that. Some of the results follow.

These molecules were tested against Lysosomal acid glucosylceramidase (Homo sapiens) (UniProt P04062) (assay: Glucocerebrosidase). Settings: purified enzyme, resorufin glucoside fluorescence (screen aimed at inhibitors), 20 min.
Sequence of UniProt P04062 (P04062 whole entry, looked up): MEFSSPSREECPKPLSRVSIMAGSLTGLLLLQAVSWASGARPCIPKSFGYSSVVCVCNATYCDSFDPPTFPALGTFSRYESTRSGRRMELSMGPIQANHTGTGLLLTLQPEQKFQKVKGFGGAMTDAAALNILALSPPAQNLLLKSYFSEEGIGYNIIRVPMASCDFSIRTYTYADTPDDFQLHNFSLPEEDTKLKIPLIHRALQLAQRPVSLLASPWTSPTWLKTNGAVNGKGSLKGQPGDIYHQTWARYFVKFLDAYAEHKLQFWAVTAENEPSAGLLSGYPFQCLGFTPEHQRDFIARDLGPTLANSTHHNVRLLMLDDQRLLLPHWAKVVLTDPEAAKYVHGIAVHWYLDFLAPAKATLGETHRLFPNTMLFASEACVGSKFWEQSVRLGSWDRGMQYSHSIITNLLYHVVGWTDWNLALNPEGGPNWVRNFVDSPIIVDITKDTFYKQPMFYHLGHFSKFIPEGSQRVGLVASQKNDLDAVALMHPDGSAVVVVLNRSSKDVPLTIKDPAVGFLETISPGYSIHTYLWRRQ
Procedure, shortened: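 Compounds titrated against 0.2 nM normal enzyme, 30 uM resorufin beta-D-glucopyranoside substrate, citrate/phosphate buffer with taurocholate and tween-20, pH 5.9. Reaction ran 20 min at room temperature; fluorescence (Ex 548/Em 600) gave AC50.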
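Note: the screen sought inhibitors.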
Potency is the fitted concentration of half-maximal effect.

Potency, inactive:
CN(C)CCn1c(C(=O)O)cc2ccccc21 > 76.9 µM, N#CC12CCCCC1CC1CCCCC1(C#N)N2CCO (centres undefined) > 76.9 µM, Cc1ccc(NC2CC(=O)N(c3ccc(N4CCCCC4)cc3)C2=O)cc1 (centres undefined) > 76.9 µM, Cc1ccc(C)n1NC(=O)c1cccs1 > 76.9 µM, CCOC(=O)N1CCC(NC(=O)c2cc3c(-c4cccc(OC)c4)nn(C)c3s2)CC1 > 76.9 µM, CCOC(=O)C1CCCN(C(=O)Cc2c(C(=O)O)[nH]c3ccccc23)C1 (centres undefined) > 76.9 µM, COc1ccc(OC)c(S(=O)(=O)N2CCCCC2C(=O)N2CCN(c3ccccn3)CC2)c1 (centres undefined) > 76.9 µM, C=CCNC(=O)c1ccncc1 > 76.9 µM, Cc1cc(C)cc(NS(=O)(=O)c2ccc3[nH]c(=O)[nH]c3c2)c1 > 15.4 µM, Nc1nnc(CC(=O)N2CCCCC2)s1 > 76.9 µM, N#Cc1c(NC(=O)c2cc(-n3cnnc3)ccc2Cl)sc2c1CCCC2 > 76.9 µM, O=C(Nc1nc2n(n1)C(c1ccccc1)C=C(c1ccccc1)N2)c1ccco1 (centres undefined) > 76.9 µM, COCCNC(=O)C(OC(=O)c1ccco1)c1ccccc1OC (centres undefined) > 76.9 µM, c1coc(-c2nc(-c3ccco3)c(-c3ccco3)nc2-c2ccco2)c1 > 15.4 µM, O=S(=O)(c1ccc(C2=CSC3=NCCN23)cc1)N1CCOCC1 > 76.9 µM, CCOC(=O)c1cc2sc(C)cc2n1C(C)C(=O)OCC (centres undefined) > 76.9 µM, Cc1noc(C)c1COc1cccc(C(=O)Oc2ccc3c(c2)OCO3)c1 > 76.9 µM, COc1ccccc1S(=O)(=O)Cc1ccc(C(=O)NC2CCCCC2)o1 > 76.9 µM, CC(C)CCn1c(=O)c2ccccc2n2c(COC(=O)c3ccc(S(=O)(=O)N(C)C)cc3)nnc12 > 76.9 µM, Cn1c(=O)n(C)c2cc(S(=O)(=O)NCCc3ccccc3)ccc21 > 76.9 µM, O=C(CSc1nnc(-c2cccs2)n1Cc1ccco1)c1ccc2c(c1)OCO2 > 76.9 µM, O=c1[nH]c(CN2CCN(Cc3ccccc3)CC2)nc2sc3c(c12)CCC3 > 76.9 µM, Cc1ccn2c(NC3CCCCC3)c(C)nc2c1 > 76.9 µM, CCOc1ccccc1C1NC(=O)NC(C)=C1C(=O)OC1CCCC1C (centres undefined), Cc1cc2nc(SC(C)C(=O)O)[nH]c2cc1C (centres undefined) > 76.9 µM, CN(C)c1ccc(CN(C(=O)C2COc3ccccc3O2)C2CCS(=O)(=O)C2)cc1 (centres undefined) > 76.9 µM, COc1cc(NS(=O)(=O)c2cccc3nsnc23)c(C(=O)O)cc1OC > 76.9 µM, CC(C)(C)NC(=O)C1N(c2cccnc2)C(=O)C2C(C(=O)Nc3ccccc3F)C3(C)C=CC21O3 (centres undefined) > 76.9 µM, CC(C)N1C(=O)c2ccc(C(=O)O)cc2C1=O > 76.9 µM, CCOC(=O)C(CCSC)NC(=O)CN (centres undefined) > 76.9 µM, COC(=O)Nc1sc2c(c1C(=O)NCc1ccco1)CCCC2 > 76.9 µM, CCOC(=O)C1CCN(C(=O)CCc2nc3ccccc3[nH]2)CC1 > 76.9 µM, Cc1ccc(S(=O)(=O)Nc2ccc3oc(=O)sc3c2)c(C)c1 > 76.9 µM, CCCCOC(=O)CSc1nnc(-c2ccc(Cl)cc2Cl)o1 > 76.9 µM, Cc1cc(=O)[nH]c(SCC(=O)Nc2nnc(CC(C)C)s2)n1 > 76.9 µM, COc1ccc(NC(=O)c2oc3ccc(S(=O)(=O)N4CCC5(CC4)OCCO5)cc3c2C)cc1 > 76.9 µM, CC(CCO)Nc1nc2c(c(=O)n(C)c(=O)n2C)n1Cc1cccc(Br)c1 (centres undefined) > 76.9 µM, Cc1nc2c(C(=O)NCc3ccc4c(c3)OCO4)c[nH]n2c(=O)c1Cl > 76.9 µM, O=C(CCN1C(=O)C2C3C=CC(C3)C2C1=O)Nc1ccc(F)cc1 (centres undefined) > 76.9 µM, COc1ccc(OC)c(NC(=O)CS(=O)(=O)c2ccccc2)c1 > 76.9 µM, COc1nc(NCc2ccco2)nc(N2CCC(C)CC2)n1 > 76.9 µM, CN(C)CCSc1nc(N)c2c3c(sc2n1)CN(C)CC3 > 76.9 µM, O=C1CN(C(=O)COC(=O)C2=COCCO2)c2ccccc2N1 > 76.9 µM, COc1ccc(-n2cc(-c3ccccc3)c3c(N4CCN(CCO)CC4)ncnc32)cc1, CCN(CC)c1ccc(C2C3CCCCC3(O)CCN2CC(=O)N2CCCCC2)cc1 (centres undefined) > 76.9 µM, CCCN(c1nc(C)cc(OC)n1)S(=O)(=O)c1ccccc1 > 76.9 µM, O=C(CSc1nc2ccccc2o1)NCC(=O)c1ccccc1 > 76.9 µM, CC(C)C(=O)Nc1ccc(NC(=O)c2cccc(F)c2)cn1 > 76.9 µM, COc1cc(C)c(N)cc1C(C)C > 76.9 µM, O=C(CC(C(=O)N1CCc2ccccc21)n1ccnc1)N1CCc2ccccc2C1 (centres undefined) > 76.9 µM, O=C(O)CCCNS(=O)(=O)c1ccc(Br)s1 > 76.9 µM, COc1cccc2cc(C(=O)N(C)C)c(=O)oc12 > 76.9 µM, Cc1csc2nc(CNC(=O)c3ccco3)cn12 > 76.9 µM, CCCn1c2ccccc2c2nc3ccccc3nc21 > 76.9 µM, CCOC(=O)/C(C#N)=C1/SC(CC)C(=O)N1c1ccc(C)cc1 (centres undefined) > 76.9 µM, c1n[nH]c(NC2=NCCC2)n1 > 76.9 µM, COc1cc2[nH]c(=O)n(CCCC(=O)NCCc3ccccc3)c(=O)c2cc1OC > 76.9 µM, CCc1nc(N)c(C#N)c(-c2ccc(OC)c(OC)c2)c1C > 76.9 µM, CC(C)C[C@H](NC(=O)Nc1cccc(C(F)(F)F)c1)C(=O)O > 76.9 µM
